Reference: PubChem BioAssay AID1030 (National Center for Advancing Translational Sciences (NCATS), 2008)
Hit rate of the full screen: of about 220,000 compounds, about 16,000 (7.3%) were called active. Inconclusive results, whose numbers are uncertain, are shown with a selection of clear calls. The call rests on the fitted dose curve; in most records, active means well fitted inhibition curve with a large enough effect (not every such curve was filed as active); inconclusive means small, poorly fitted or top-dose-only effect, or another doubt; inactive means no such curve, though single readings can be large or run the other way. Potencies of inconclusive entries are doubtful fits and often do not repeat.

What follows are compounds tested against Aldehyde dehydrogenase 1A1 (Homo sapiens) (UniProt P00352) (assay: qHTS Assay for Inhibitors of Aldehyde Dehydrogenase 1 (ALDH1A1)). Conditions: Purified ALDH1A1, NADH fluorescence, propionaldehyde substrate; series mostly up to 75.3 µM; activity, negative = inhibition: at the top concentration.
Potency means the concentration at half of the fitted maximal effect; tags describe the fitted curve by direction and shape.
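Wherever activity, negative = inhibition is given: plate controls were no enzyme wells and a reference inhibitor.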

Chain of UniProt P00352 (P00352 whole entry, looked up): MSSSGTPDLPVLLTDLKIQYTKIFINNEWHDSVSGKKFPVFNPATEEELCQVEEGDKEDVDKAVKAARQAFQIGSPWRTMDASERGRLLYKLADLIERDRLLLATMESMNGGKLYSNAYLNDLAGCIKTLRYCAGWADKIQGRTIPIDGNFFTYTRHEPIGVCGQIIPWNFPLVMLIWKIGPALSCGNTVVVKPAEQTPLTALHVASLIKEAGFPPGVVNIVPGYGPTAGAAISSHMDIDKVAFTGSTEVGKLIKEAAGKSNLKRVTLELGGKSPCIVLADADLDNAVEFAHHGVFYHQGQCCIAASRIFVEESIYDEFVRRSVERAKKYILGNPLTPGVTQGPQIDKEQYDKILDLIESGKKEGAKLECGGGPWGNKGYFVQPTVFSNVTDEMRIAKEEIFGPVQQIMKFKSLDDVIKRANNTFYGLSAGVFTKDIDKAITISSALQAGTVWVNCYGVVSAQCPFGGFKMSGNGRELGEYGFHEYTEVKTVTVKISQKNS

Potency, inconclusive:
O=C(Nc1nnc(-c2ccco2)s1)C1CCN(S(=O)(=O)c2ccc(Cl)cc2)CC1 39.8 µM [inhibitor, single point]
CCN(CC)S(=O)(=O)c1cc(NS(=O)(=O)c2cccc(C(=O)O)c2)ccc1C 39.8 µM [inhibitor, single point]
CC(C)Cn1c(N)c(C(=O)COC(=O)c2cc(C3CC3)nc3ccccc23)c(=O)n(C)c1=O 39.8 µM [inhibitor, single point]
CC(=O)Nc1ccc(N2C(=O)CSC2c2cccc([N+](=O)[O-])c2)cc1 (configuration not stated) 25.1 µM [inhibitor, partial curve]
COc1ccc(CCN(Cc2cc3cccc(C)c3[nH]c2=O)C(=O)N2CCCC2)cc1OC 17.8 µM [inhibitor, partial curve]
Cc1nn(C(=O)c2ccco2)c(C)c1Br 31.6 µM [inhibitor, single point]
O=C1CC(N2CCSCC2)C(=O)N1c1cccc(Br)c1 (configuration not stated) 39.8 µM [inhibitor, single point]
CCOc1cc(C(=S)N2CCCCC2)ccc1OCC(=O)NCc1ccccc1 39.8 µM [inhibitor, single point]
c1ccc(-c2noc(C3CCCCC3)n2)nc1 44.7 µM [inhibitor, single point]
CCOC(=O)NN1C(=O)c2ccccc2NC1c1ccc(OC)cc1OC (configuration not stated) 25.1 µM [inhibitor, partial curve]
Cc1ccc(OCC(=O)c2cc(C)n(Cc3cccs3)c2C)c([N+](=O)[O-])n1 39.8 µM [inhibitor, single point]
COc1cc(NS(=O)(=O)c2ccc(N/C=C\C(=O)c3ccc(F)cc3)cc2)nc(OC)n1 31.6 µM [inhibitor, partial curve]
CCCCC(=O)N/N=C/c1ccc(-c2ccc([N+](=O)[O-])cc2)o1 20 µM [inhibitor, partial curve]
COc1cc(/C=N\NC(=O)c2nonc2N)c(OC)cc1Br 35.5 µM [inhibitor, single point]
C=CCN1C(=O)c2oc3ccccc3c(=O)c2C1c1ccc(O)c(OC)c1 (configuration not stated) 22.4 µM [inhibitor, partial curve]
O=C1C(=O)N(Cc2cccnc2)C(c2ccccn2)/C1=C(/O)c1ccc(F)cc1 (configuration not stated) 31.6 µM [inhibitor, single point]
COc1cccc2c(=O)c3ccccc3oc12 22.4 µM [inhibitor, partial curve]
O=C(Cc1ccc(-n2c(=O)c3sccc3n(CC(=O)Nc3ccccc3F)c2=O)cc1)NCc1ccco1 39.8 µM [inhibitor, single point]
O=C(CSCc1ccccc1)N/N=C/c1cc2c(cc1Br)OCO2 39.8 µM [inhibitor, single point]
O=C(CS(=O)(=O)c1cn(Cc2ccc(F)cc2)c2ccccc12)N1CCCCC1 25.1 µM [inhibitor, single point]
O=C(CN1C(=O)c2cccc3cccc1c23)Nc1ccc(S(=O)(=O)N2CCOCC2)cc1 37.7 µM [inhibitor, single point]
O=C(Nc1nc2c(s1)CCCC2)c1cccc(S(=O)(=O)N2CCCc3ccccc32)c1 25.1 µM [inhibitor, partial curve]
CCCC(=O)NC(=S)Nc1ccc(N2CCN(C(=O)c3cccs3)CC2)cc1 44.7 µM [inhibitor, single point]
CCCOc1ccc(C2C(C(=O)c3ccc(C)o3)=C(O)C(=O)N2CCN2CCOCC2)cc1OC (configuration not stated) 39.8 µM [inhibitor, single point]
COc1ccc(Oc2ncccc2NC(=O)c2cccc(C)c2C)cc1 39.8 µM [inhibitor, single point]
CCN(Cc1ccccc1)c1ccc(/C=N/NC(=S)NC(C)C)cc1 28.2 µM [inhibitor, single point]
CCOC(=O)Cc1c(C)nc2c(-c3ccccc3)c[nH]n2c1=O 31.6 µM [inhibitor, single point]
CC(NC(=O)CCN1C(=O)c2ccccc2C1=O)c1ccc2c(c1)CCCC2 (configuration not stated) 39.8 µM [inhibitor, single point]
CSC1=N/C(=C\c2ccc(Br)o2)C(=O)S1 39.8 µM [inhibitor, single point]
CC(=O)C1=C(c2ccccc2)NC(=O)NC1c1ccc(O)c(O)c1 (configuration not stated) 20 µM [inhibitor, partial curve]
O=C(CN1N=C(c2ccccc2)CCC1=O)NCc1cccs1 39.8 µM [inhibitor, single point]
CC1(C)Cc2c(C#N)c(OCC(=O)c3ccc(Cl)cc3)nc(-c3ccco3)c2CO1 0.562 µM [inhibitor, full curve, poor fit]
COc1cccc(NC(=O)Nc2nnc(N3CCCCC3C)s2)c1 (configuration not stated) 35.5 µM [inhibitor, single point]
COc1ccccc1NS(=O)(=O)c1cccc(C(=O)N/N=C/c2ccc(NC(C)=O)cc2)c1 35.5 µM [inhibitor, single point]
CCCCn1c(=O)[nH]c(=O)c2c1nc(-c1ccc(C(F)(F)F)cc1)n2C 25.1 µM [inhibitor, partial curve]
N#CC(C#N)=c1ccc2c(c1)N1C3=C(CCCC3)CC3CCCCC31N=2 (configuration not stated) 11.2 µM [inhibitor, partial curve]
Cc1ccc(C2CC(c3cccc(C)c3)n3nc(N)nc3N2)cc1 (configuration not stated) 39.8 µM [inhibitor, single point]
Cc1ccc2cc(C3CC(c4ccco4)=NN3S(=O)(=O)c3ccccc3)c(Cl)nc2c1 (configuration not stated) 37.7 µM [inhibitor, single point]
COc1ccc(CC(=O)NCC(c2ccc(OC)cc2)N(C)C)cc1 (configuration not stated) 39.8 µM [inhibitor, single point]
CC(C)(C)C(=O)/C=C/c1ccc(Oc2ccccc2)cc1 39.8 µM [inhibitor, single point]
CCOC(=O)C1=C(CNCc2ccccc2Cl)NC(=O)NC1c1cccc([N+](=O)[O-])c1 (configuration not stated) 39.8 µM [inhibitor, single point]
Cc1ccc(S(=O)(=O)N=Nc2c(O)[nH]c3ccccc23)cc1C 31.6 µM [inhibitor, single point]
S=C1NCN(Cc2ccco2)CN1Cc1ccco1 39.8 µM [inhibitor, single point]

Potency, inactive:
C/C=C1\C2C=C(C)CC1(N)c1ccc(=O)[nH]c1C2 (configuration not stated)

Potency, active:
COC(=O)C1CCN(c2cc(=O)n(-c3ccccc3Cl)c(=O)[nH]2)CC1 17.8 µM
Cc1ccccc1N1C(=O)c2sc3nc4c(c(=O)n3c2C1=O)CCC4 28.2 µM
O=C1C(=O)N(CCN2CCOCC2)C(c2ccccn2)/C1=C(/O)c1ccc(Cl)cc1 (configuration not stated) 12.6 µM
O=C(NCCN1CCOCC1)C1CCC(CNS(=O)(=O)c2ccccc2)CC1 (configuration not stated) 12.6 µM
Cn1cccc1CC(=O)NNC(=S)Nc1ccc(Cl)cc1Cl 10 µM
COc1ccc2nc(SCc3nc(N)nc(Nc4ccccc4)n3)[nH]c2c1 7.94 µM
Cc1ccc(S(=O)(=O)NCC2CCC(C(=O)NCCCOC(C)C)CC2)cc1 (configuration not stated) 0.708 µM
CCCc1cc(=O)[nH]c(-n2[nH]c3c(c2=O)CCCC3)n1 23.8 µM
O=C(CC1(O)C(=O)N(Cc2ccccc2Cl)c2ccccc21)c1ccco1 (configuration not stated) 1.26 µM

activity, negative = inhibition, inactive:
O=C(c1cc(F)c(F)cc1Cl)N1CCCCC1 -1.28%
CC(C=O)Cc1ccc(C(C)(C)C)cc1 (configuration not stated) 11.3%
CCCCn1cnc2c(c(CC#N)nn2-c2ccccc2)c1=N 0.832% [at 13.5 µM]
COc1ccc(C(=O)NNC(=O)CSc2nnc(COc3ccccc3OC)n2C)cc1 3.27%
C[C@@]12C=CC(=O)C=C1CC[C@H]1[C@H]3CC[C@](O)(C(=O)CO)[C@]3(C)CC(=O)[C@@H]12 2.34% [at 20.9 µM]
O=C(Nc1nccs1)c1ccc(Cl)cc1[N+](=O)[O-] 19.1%
CC1CC(=O)C2=C(C1)Nc1ccccc1N=C2 (configuration not stated) 19.2%
O=S(=O)(/N=C(/c1ccc(Cl)cc1)N1CCOCC1)c1ccc(Cl)cc1 11.4%
COc1cccc(OC)c1OCCCOc1ccc([N+](=O)[O-])cc1Cl -2.08%
CS(=O)(=O)N1CCN(Cc2ccc([N+](=O)[O-])cc2)CC1 3.97%
Cc1noc(C)c1CCC(=O)N1CCCC(CCC(=O)NCc2ccc(F)c(F)c2)C1 (configuration not stated) -0.968%
COc1ccc(C)cc1NC(=O)NC1CCN(Cc2ccccc2)CC1 -0.109%
CCCCNCCOc1ccccc1-c1ccccc1 -6.78%
COc1ccc(C(=O)Cc2ccc3c(c2)OCO3)c(O)c1 -1.14%
O=C(C[n+]1ccc(-c2nnc3n2CCC3)cc1)c1ccc(Cl)c(Cl)c1 1.43%
CCc1ccc2[nH]c(=O)c(CN(Cc3ccccc3)C(=O)Nc3ccccc3OC)cc2c1 -5.51%
Cc1ccc2c(c1)c1c(n2CC(O)CNC(CO)(CO)CO)CCCC1 (configuration not stated) -1.27%
CC(C)=CCn1cnc2c1C(NOCc1ccccc1)=NCN2 9.1%
CNCc1ccccc1 0.835%
